Test results from PubChem BioAssay AID485364 (National Center for Advancing Translational Sciences (NCATS), 2010).
Out of some 360,000 compounds screened, about 11,000 (3.1%) were called active. The shares of active, inactive and inconclusive entries below differ from those in the screen. Calls come from the whole dose curve; as a rule, active = well fitted inhibition curve with a large enough effect; inconclusive = small, poorly fitted or top-dose-only effect; inactive = no such curve, though single readings can be large or run the other way. Potencies of inconclusive entries are left out as doubtful fits.

Molecular target: Schistosoma mansoni thioredoxin glutathione reductase (TGR) (UniProt Q962Y6)
Test: qHTS Assay for the Inhibitors of Schistosoma Mansoni Peroxiredoxins; note: nearly all actives have a fitted effect of over 60% in size
Conditions: purified TGR, DTNB reduction, TNB absorbance 405 nm; series mostly up to 114 µM
Summary of the method: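 First, TGR (20 nM dispensed) and NADPH were mixed with compound. Second, a 15 min room-temperature incubation followed. Third, further NADPH and then DTNB were added to start the reaction. Finally, TNB absorbance was monitored kinetically.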
Potency is the fitted concentration of half-maximal effect; tags give direction and shape of the fitted curve.

Compound	Potency
COC(=O)c1ccc(-c2cc(CC3(C(=O)OC)CCN(C(=O)OC(C)(C)C)CC3)on2)cc1	inactive
COc1ccc2c(c1)C1=NN(/C(C)=C/C(C)=O)C(c3ccc(F)cc3)C1CC2 (stereo not drawn)	inconclusive [inhibitor, partial curve]
CC1CCN(c2ccc(-c3cccs3)nn2)CC1	inconclusive [inhibitor, single point]
Cc1cc(C)n(Cc2ccc(C(=O)NCc3ccco3)o2)n1	inconclusive [inhibitor, partial curve]
Cc1nc(C)n(C(C)CNS(=O)(=O)c2ccc(Cl)cc2)n1 (stereo not drawn)	inactive
Cc1[nH]nc2ncc(C(=O)c3cc(Cl)cc(Cl)c3O)cc12	inconclusive [inhibitor, single point]
Cc1ccc2c(C(=O)CN3CCOCC3)c(C)[nH]c2c1	inconclusive [inhibitor, full curve]
Cc1ccc(C)c(NC(=O)CCN2CCC(C)CC2)c1	inconclusive [inhibitor, single point]
O=C1CC(c2ccco2)Cc2nc(Nc3ccc(F)cc3)ncc21 (stereo not drawn)	inconclusive [inhibitor, partial curve]
CCC(=S)/C=C1\Sc2ccccc2N1CCCS(=O)(=O)O	inconclusive [inhibitor, partial curve]
CCOC(=O)C1CCCN(Cc2ccc(O)c(OC)c2)C1 (stereo not drawn)	inconclusive [inhibitor, partial curve]
O=C1CC(N2CCSCC2)C(=O)N1c1ccc(F)cc1 (stereo not drawn)	inconclusive [inhibitor, full curve, poor fit]
Nc1nonc1-c1nc2ccccc2[nH]1	inconclusive [inhibitor, single point]
N#CC1=C(N)C(C#N)(C#N)C2(CCC3(CC2)OCCO3)C2CC3(CC=C12)OCCO3 (stereo not drawn)	inconclusive [inhibitor, partial curve]
CN1CCN(NC(=S)Nc2ccc(Oc3ccccc3)cc2)CC1	inconclusive [inhibitor, partial curve, poor fit]
COc1ccccc1C(=O)NCCC(=O)NNC(=O)C1COc2ccccc2O1 (stereo not drawn)	inactive
CCOC(=O)N1CCN(C(=O)CSc2ccc(-c3ccccc3OC)nn2)CC1	inactive
COc1ccc(C2/C(=C(/O)c3ccc(F)cc3)C(=O)C(=O)N2CCCN2CCOCC2)cc1OC (stereo not drawn)	inconclusive [inhibitor, partial curve]
CC(C)n1c(-c2ccccc2)nc(=S)c2c1CCCC2	inconclusive [inhibitor, partial curve]
Oc1ccc2ccccc2c1CNc1cnc2ccccc2c1	inconclusive [inhibitor, full curve, poor fit]
O=C(CNC(=O)c1ccc(Br)o1)Nc1cccc(S(=O)(=O)N2CCOCC2)c1	inconclusive [inhibitor, partial curve]
Cc1ccnc(NC(c2cccc(O)c2)c2ccc3ccc(C)nc3c2O)c1 (stereo not drawn)	active: 1.58 µM
COc1ccc(Br)cc1CNC(=O)Cc1cccs1	inconclusive [inhibitor, partial curve]
COc1ccc(CN2CCNC(=O)C2CC(=O)NC2CCCCCCC2)cc1OC (stereo not drawn)	inconclusive [inhibitor, partial curve]
NCc1ccc(S(N)(=O)=O)cc1	inconclusive [inhibitor, partial curve]

Compound	Potency
O=C(NC(=S)Nc1cccc2ncccc12)c1ccco1	active: 14.1 µM
N#Cc1cc(-c2ccccc2)oc1/N=C/c1ccccc1O	inconclusive [inhibitor, partial curve]
COc1nonc1NCn1nc(C)cc1C	inconclusive [inhibitor, full curve, poor fit]
O=C(Sc1ccc(Cl)cc1)c1cccc(Cn2cc(C(F)(F)F)ccc2=O)c1	active: 20 µM
C=CCNC(=S)Nc1ccc(Cl)c(S(=O)(=O)N2CCOCC2)c1	inconclusive [inhibitor, partial curve]
CCN(CC)C(NC(=O)c1ccccc1)C(=O)c1ccccc1 (stereo not drawn)	active: 79.4 µM
COc1ccc(Cl)cc1NC(=S)NCCCN1CCCC1=O	active: 50.1 µM
Cc1onc(-c2ccccc2)c1C(=O)NCc1ccco1	inconclusive [inhibitor, full curve, poor fit]
COc1ccc(-n2c(=O)c3c4c(sc3n(CC(=O)NCc3ccco3)c2=O)CCC4)c(OC)c1	inconclusive [inhibitor, full curve, poor fit]
S=C1NC2(CCCCCC2)N=C1c1ccccc1	inactive
CCc1ccccc1Nc1nc(N)nc(COC(=O)CCC(=O)c2ccc(F)cc2)n1	inactive
CSc1nnc(C)c(=O)n1COC(=O)c1cc(Cl)ccc1[N+](=O)[O-]	active: 22.4 µM
O=C(O)c1nccnc1C(=O)N1CCN(c2ccccc2)CC1	inconclusive [inhibitor, partial curve]
CC1=C/C(=C/N(C)C)C(=O)O1	active: 20 µM
COc1ccc(CCNC(=O)CN2C(=O)c3ccccc3S2(=O)=O)cc1	inconclusive [inhibitor, single point]
COc1cccc(NC(=O)c2cnc(SCC(=O)N3CCCc4ccccc43)n(C)c2=O)c1	inconclusive [inhibitor, single point]
Cc1cccc(CS(=O)(=O)Cc2ccc(C(=O)NCc3ccc(F)cc3)o2)c1	inconclusive [inhibitor, full curve, poor fit]
COc1cccc(NC(=O)COC(=O)C2C3CC4OC(=O)C2C4C3)c1 (stereo not drawn)	inactive
CC(COS(N)(=O)=O)Cc1ccc(C(F)(F)F)cc1 (stereo not drawn)	inconclusive [inhibitor, full curve, poor fit]
COc1ccccc1NC(=O)COc1ccc(/C=N/NC(=O)CSCc2ccc(Cl)cc2)cc1	inactive
Cn1cccc1CC(=O)NNC(=S)NC(=O)c1ccc(F)cc1	inconclusive [inhibitor, partial curve]
Cc1ccc(CC(CC(=O)NCCc2ccc3c(c2)OCO3)C(=O)O)cc1 (stereo not drawn)	inconclusive [inhibitor, partial curve, poor fit]
COc1ccccc1NC(=O)CSc1nnc(COc2ccc(Cl)cc2)n1Cc1ccco1	inconclusive [inhibitor, partial curve]
CN(C)c1cccc(-c2nnc(SCCCC#N)o2)c1	inactive
CC(C)OC(=O)/C(=C/c1ccco1)c1ccccc1	active: 10 µM

Compound	Potency
O=C(CN1C(=O)NC(Cc2c[nH]c3ccccc23)C1=O)Nc1ccccc1Br (stereo not drawn)	inconclusive [inhibitor, partial curve, poor fit]
CN1C(=O)C(C)(C)N(C(=O)c2cccc([N+](=O)[O-])c2)c2ccccc21	inactive
C/C(=N\NC(=O)c1ccccc1O)c1cccs1	inactive
Cc1ccc(NC(=O)CSc2nnc3ccccn23)cc1S(=O)(=O)N1CCOCC1	inactive
O=C(C[n+]1ccccc1)N/N=C/c1cc(Br)cc(Br)c1O	inconclusive [inhibitor, partial curve]
CCC(C(=O)N1CCOCC1)n1nc(C)n2c(cc3cc(C)ccc32)c1=O (stereo not drawn)	inactive
CC(C)(C)Cc1nc2ccccc2n1CCc1ccccc1	inactive
O=C(COCc1cc(-c2ccco2)on1)Nc1cc(Cl)ccc1O	inconclusive [inhibitor, partial curve]
CCOC(=O)C1=NNC(C(=O)c2ccccc2)C1c1ccc(C)cc1 (stereo not drawn)	inactive
COc1ccc(CN2C(=NC(=O)C3CC3)SC3CS(=O)(=O)CC32)cc1 (stereo not drawn)	inactive
Cc1cc(N=Nc2ccc(Cl)cc2)cc(CN2CCCC2)c1O	inconclusive [inhibitor, full curve, poor fit]
CCOC(=O)Cc1csc(NC(=S)NC(=O)c2cccc([N+](=O)[O-])c2)n1	inactive
NC(=O)c1cc(NC(=O)CCNS(=O)(=O)c2cccc(C(F)(F)F)c2)cc(C(N)=O)c1	inactive
CC(C)C[C@@H](CO)N(Cc1ccccc1)S(=O)(=O)N(Cc1ccccc1)[C@H](CO)CC(C)C	inconclusive [inhibitor, single point]
CCc1ccc(/C=C2/SC(=S)N(CC(=O)Nc3nc4ccccc4s3)C2=O)cc1	inactive
OCCCCNCc1ccc(OCc2ccccc2)cc1	inconclusive [inhibitor, single point]
CC(C)N(CCCNC(=O)c1ccc(CS(=O)(=O)c2c(Cl)cccc2Cl)o1)Cc1ccccc1	inconclusive [inhibitor, partial curve]
COCCNC(=S)N/N=C(\C)CCc1ccc2c(c1)OCO2	inconclusive [inhibitor, full curve, poor fit]
COc1ccc(N2CCN(C(c3ccccc3OC)c3nnnn3C3CCCC3)CC2)cc1 (stereo not drawn)	inconclusive [inhibitor, single point]
Cc1ccc(-n2ncc3c(Nc4ccc5c(c4)OCCO5)ncnc32)cc1Cl	inactive
CN1C(=O)CC(Nc2cccc3cccc(N)c23)C1=O (stereo not drawn)	active: 31.6 µM
CCOc1ccc(C2c3c(oc4cc(C)c(C)cc4c3=O)C(=O)N2CCCN(C)C)cc1OC (stereo not drawn)	inconclusive [inhibitor, full curve, poor fit]
NC(=O)c1ccc(NC(=O)C#Cc2ccccc2)cc1	inconclusive [inhibitor, partial curve, poor fit]
